The text below walks through data of article PMC10726135.

The other results are listed elsewhere or left out. At the low end of the ranking the order means little. The protein was read in a cell extract, so binding may be indirect.

This assay addresses T1, HNF4alpha8 (COS-7 nuclear extract) (UniProt P41235-5).
T1 sequence: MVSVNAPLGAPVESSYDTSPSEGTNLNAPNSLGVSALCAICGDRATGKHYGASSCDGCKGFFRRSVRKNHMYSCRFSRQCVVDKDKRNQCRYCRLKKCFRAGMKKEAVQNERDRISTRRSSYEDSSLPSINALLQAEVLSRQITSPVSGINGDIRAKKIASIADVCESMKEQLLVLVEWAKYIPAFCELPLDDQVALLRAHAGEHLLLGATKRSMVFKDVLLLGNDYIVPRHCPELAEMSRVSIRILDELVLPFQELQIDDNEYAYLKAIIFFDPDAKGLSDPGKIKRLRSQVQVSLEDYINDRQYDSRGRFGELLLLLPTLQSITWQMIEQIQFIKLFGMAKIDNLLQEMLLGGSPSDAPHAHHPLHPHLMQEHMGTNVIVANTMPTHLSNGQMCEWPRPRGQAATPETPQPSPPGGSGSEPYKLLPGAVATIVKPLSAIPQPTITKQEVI
Kind of assay: protein-binding microarray. The following applies: COS-7 nuclear extract on double-stranded Agilent 4x180k PBM; binding buffer, salt, pH and temperature not given; high values mean tight binding; double strand, one strand shown; sequences stand for … in …GCCTAGGGAGATTAGAGTATCGGTCGA
CTTGTAATTCAAGACTATAGACTGTGATAA: the binding signal (log2 normalized intensity) stood at 0.981.
With TTTGTTCACCCACCAGAGGGAACGCCCGAC the figure was -0.267; with CAGCAGCGGATCCAACCTGTTCTTTTGAGC, 0.0369; with TATTAGGCAAAAGAGATAGCGAGAAGGCAG, -0.999.
Take CCAGTGGAGTAGGCTTTAGATAAGGTATGT: the binding signal (log2 normalized intensity) came out at 0.622.
With CGGTCAAGTCAGAGGCCCAGCAAGGAGAAA the figure was -1.32; with AGATACAGGTCAGACCCTGGAATTCCAGAA, 0.684.
With ATTGGGTCCACACATTCCTAGACCTTTGAC the figure was 3.87; with AAAGAGCTTTTGGGCAGAGACTATGTGGTT, 0.636; with CATGGCAGATGTCTGTGTTCACATAGGGGC, 1.45.
Next, AGAGCAGTTCAGCTCTCTTTGCTCTCCTCC: -1.29; GAAGTGTTTGTCAAGCTCAATGCAACCAGT: 0.124.
Take AAGTGTGGTCAAGGGTCAGTTTCTGAGAGT: the binding signal (log2 normalized intensity) was determined as 4.14.
Take TGTGGGGGCGGCAGGAGCCACAAGCCGGAG: the binding signal (log2 normalized intensity) was -1.21.
GCAATCACGCCTCAAATGAGCTTTTGATGA: the binding signal (log2 normalized intensity) was -1.34.
Next, TCATGCCTTAGCTCTAGACATCGACCTTTG: 6.43; CTGTAAATAAATGTCATTTAAGACGAGTGG: -0.0815; GCTTTTCTCAAGTTCAGTCTTTATTGGTAC: 1.94.
Turning to GCTAAGTCCAAAGGTAAAAACTGGCTCTTA, the binding signal (log2 normalized intensity) was found to be 3.07.
With CAGGAAGAACTGGTCCGCCTTCATTCCTAG the figure was -1.34; with GGGAGTTAATCACAGGATTTAAAGAATTCC, -1.4.
With TCTCCCTCTAGAGCAAAAGACAAGTTGGTT the figure was -0.00707; with GGTCTAAAAGTAGCTGTTGGAATTTGGTCA, 5.25; with TTTGCTCACTGTAACCTTTGCCCCCCAAGT, 9.22.
Next, GGAAGCGATGGGCTGGCCCTGAGCCAAGGG: -1.4.
Consider TTGTAAATATAGGATCATGTTGTCTGCAAA, for which the binding signal (log2 normalized intensity) stood at 0.753.
For the sequence TCAAACATCACATTCCCCAGGCAATCTTCC, the binding signal (log2 normalized intensity) came out at 0.765.
Regarding ATTTAGGGTATTTCCTAAACCAACTATAGA, the binding signal (log2 normalized intensity) is -1.32.
Next, TGAGTGCAAAGTCCCTAGAAGGGATCCAGC: 1.88; ATAGGGCTTGAAAAGAAGAAAAAACAGGTG: -1.37; GGGCTCCTTTGATCTCCGTGTTTGGAATTG: 2.2.
Next, TACCTGGTTAAAAGGACAACCTTCGGCCGG: 3.04.
With CAGAACTAGCAAGTGCCAAGATGCTAAGGC, the binding signal (log2 normalized intensity) is -1.35.
Next, TATCCATTTATCTCAGGTGAGCAGAGGGAG: 2.55.
Next, GAAAGGGTCAAAGGTTAAGCCATTGGGCAA: 6.36; AGGCAAAGGCCACAGCTCAGATCACAAAAG: -1.25.
With AGTCTTTGCCCCACTGCAAGTTGACATAAC the figure was 2.31; with AACATTAGTATCACTGTGAAGACGTTAGGG, -0.174; with CTCGGATCCTCTGGGCTGGCTTTCATTCCA, -1.43.
Turning to CACTATCACCAGGATGGGCCATGACCTTTA, the binding signal (log2 normalized intensity) is 4.97.
Turning to ATCTGACCCCTTCTTGACCTGCGTAGCCCA, the binding signal (log2 normalized intensity) was found to be 2.74.
Next, GCTCCACCCAGTTCGTGCTTCTTGGCCTCT: 1.93; GGTGCGACGAACGGGTAAATCCGGTTTGGG: -1.3; TTTTCGAGGAGTCAAAAGGTGTATGTGGAC: 2.11.
Next, TCCCTCTCACGGTAACAGCCGGAGAGGCAA: -0.906; TTCTCCCAGGCCATACAGATACCCAGGCAT: -1.26.
With TTTGTGTGTGTGTGTGTGTGTCTGTAGTTT the figure was 3.03; with TCCCTGGTATGTACTTTCTTTTGGCTCTCT, 1.57; with TGGCCTGGCATTTGAGACTAGCCACAATAG, -1.26.
Regarding TCAATGTGATCAGGTGTGGGCATTAGCAGG, the binding signal (log2 normalized intensity) stood at 0.344.
Consider GACGGGAGGAAAACTGGGCAAAGGTCAGGA, for which the binding signal (log2 normalized intensity) was 5.58.
Next, TATGGATTAAATCTTGTTGGCTTGACGCTA: -1.32.
With AGCCTGAGCCACTTCACTGGTGTGATCTTT the figure was 3.52.
Next, AGCTCAATCAAGGTTCACTGCAGCCTTGAC: 0.0732; CCTCGACCTTCGGCTGGGGATGAAGGGGGC: 0.561; AGCAGACACTGAAAGATGGTATGCTCTGAT: -1.26.
Consider GGGCCAAGCTTAGGAATTCCAAGAAGGCAG, for which the binding signal (log2 normalized intensity) is -1.04.
As to GGGCTTTTGTCACATTCCAGACTTTGTACA, the binding signal (log2 normalized intensity) was 5.85.
Turning to GGCCCCTGAGCACTGTCTCAGGGTCCACAT, the binding signal (log2 normalized intensity) came to 3.58.
As to TCTGGGAGTGCCCTTGCCGAGAGCGGCTCG, the binding signal (log2 normalized intensity) is -1.33.
In the case of GAGCAGCACTTTTGGAGTTTGACCTGGAGC, the binding signal (log2 normalized intensity) was determined as 6.24.
Next, TTTGGAATTCCCTGCAAGGACAAAGGTCAT: 7.71; GCTGTTAGCTGAAGGACGTCAGAACTGTCC: -1.24; TGGAATCCAAAGTATTTTCTGTCTAGGTGC: 0.637.
With GAAAAAAAACCATTGCAAATTGGATGTTGA the figure was 1.48.
Next, TTAACAAGGACAAAGGTCAACAAACGCCCC: 5.93; AAGTCTGAAGGCAGGGCTTTTCCATTGACA: -1.18; AGGAGGTCAGAACTGTGGACTCGCTGCCTT: 1.39.
As for TACCAGCCAATTAGAAGGCTCCCTGCTGCG, the binding signal (log2 normalized intensity) is -1.22.
Next, AAACAGACCTCTCTCTCCCCAGACAGCCAC: 2.71.
With GGTATAAAGGTCAGGGATAGAACTGGTCCT the figure was 2.
Next, TACATGAGGAGTGAGAACAGACAAAATTAA: -1.19.
In the case of AATCTCTGCACAGCATAGAAAACAAGTTAG, the binding signal (log2 normalized intensity) was -1.12.
